# From the supplement of paper PMC4604168 (melanoma cell lines)
# The list shows a part of the results. Many values rest on one well or one pass, so single values are uncertain.
# Test system: COLO829
# Test: cell count relative to DMSO control; melanoma cells; higher = more viable cells
# Conditions: library dose: low library concentration; 72 h
# 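Note: cell number obtained by counting DAPI-stained nuclei in high-throughput microscope images with image analysis software, screen run in 1,536-well plates.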
row,Structure (SMILES),cell count [%]
1,"N#CC[C@H](C1CCCC1)n1cc(-c2ncnc3[nH]ccc23)cn1 [ruxolitinib] + Clc1ccc(Nc2nnc(Cc3ccncc3)c3ccccc23)cc1 [vatalanib] (first compound 1 µM, partner dose 2 µM)",98
2,"N#CC[C@H](C1CCCC1)n1cc(-c2ncnc3[nH]ccc23)cn1 [ruxolitinib] + O=C(/C=C/c1cccnc1)NCCCCC1CCN(C(=O)c2ccccc2)CC1 [FK866] (first compound 1 µM, partner dose 0.01 µM)",94.2
3,"Cc1cc(Nc2cc(N3CCN(C)CC3)nc(Sc3ccc(NC(=O)C4CC4)cc3)n2)n[nH]1 [Tozasertib] + CN(NC(=O)CC(=O)NN(C)C(=S)c1ccccc1)C(=S)c1ccccc1 [STA4783] (first compound 0.006 µM, partner dose 0.006 µM)",59.1
4,"N#CC[C@H](C1CCCC1)n1cc(-c2ncnc3[nH]ccc23)cn1 [ruxolitinib] + CO[C@H]1C[C@@H]2CC[C@@H](C)[C@@](O)(O2)C(=O)C(=O)N2CCCC[C@H]2C(=O)O[C@H]([C@H](C)C[C@@H]2CC[C@@H](OCCO)[C@H](OC)C2)CC(=O)[C@H](C)/C=C(\C)[C@@H](O)[C@@H](OC)C(=O)[C@H](C)C[C@H](C)/C=C/C=C/C=C/1C [everolimus] (first compound 1 µM, partner dose 0.02 µM)",91.2
5,"Cc1cc(Nc2cc(N3CCN(C)CC3)nc(Sc3ccc(NC(=O)C4CC4)cc3)n2)n[nH]1 [Tozasertib] + Cc1cc(Nc2cc(N3CCN(C)CC3)nc(/C=C/c3ccccc3)n2)n[nH]1 [ENMD2076] (first compound 0.006 µM, partner dose 0.04 µM)",93.6
6,"Cc1cc(Nc2cc(N3CCN(C)CC3)nc(Sc3ccc(NC(=O)C4CC4)cc3)n2)n[nH]1 [Tozasertib] + CC1(C)NC(=O)N(c2ccc([N+](=O)[O-])c(C(F)(F)F)c2)C1=O [nilutamide] (first compound 0.006 µM, partner dose 1 µM)",84.2
7,"CC[C@]1(O)C[C@H]2CN(CCc3c([nH]c4ccccc34)[C@@](C(=O)OC)(c3cc4c(cc3OC)N(C=O)[C@H]3[C@@](O)(C(=O)OC)[C@H](OC(C)=O)[C@]5(CC)C=CCN6CC[C@]43[C@@H]65)C2)C1 [vincristine] + COc1ccc(Cl)c(Nc2nc3ccccc3nc2NS(=O)(=O)c2cccc(NC(=O)C(C)(C)N)c2)c1 [XL147] (first compound 0.0001 µM, partner dose 0.8 µM)",95.8
8,"N#CC[C@H](C1CCCC1)n1cc(-c2ncnc3[nH]ccc23)cn1 [ruxolitinib] + CCN(CC)CCNC(=O)c1c(C)[nH]c(/C=C2\C(=O)Nc3ccc(F)cc32)c1C [sunitinib] (first compound 1 µM, partner dose 0.4 µM)",144
9,"Cc1cc(Nc2cc(N3CCN(C)CC3)nc(Sc3ccc(NC(=O)C4CC4)cc3)n2)n[nH]1 [Tozasertib] + COc1cc([C@@H]2c3cc4c(cc3[C@@H](O[C@@H]3O[C@@H]5CO[C@@H](C)O[C@H]5[C@H](O)[C@H]3O)[C@H]3COC(=O)[C@H]23)OCO4)cc(OC)c1O [etoposide] (first compound 0.006 µM, partner dose 0.02 µM)",98.6
10,"CC[C@]1(O)C[C@H]2CN(CCc3c([nH]c4ccccc34)[C@@](C(=O)OC)(c3cc4c(cc3OC)N(C=O)[C@H]3[C@@](O)(C(=O)OC)[C@H](OC(C)=O)[C@]5(CC)C=CCN6CC[C@]43[C@@H]65)C2)C1 [vincristine] + Oc1nc(-c2ccc(C(F)(F)F)cc2)nc2c1CSCC2 [XAV939] (first compound 0.0001 µM, partner dose 2 µM)",136
11,"CC[C@]1(O)C[C@H]2CN(CCc3c([nH]c4ccccc34)[C@@](C(=O)OC)(c3cc4c(cc3OC)N(C=O)[C@H]3[C@@](O)(C(=O)OC)[C@H](OC(C)=O)[C@]5(CC)C=CCN6CC[C@]43[C@@H]65)C2)C1 [vincristine] + CC(=O)O[C@@]12CO[C@@H]1C[C@H](O)[C@@]1(C)C(=O)[C@H](O)C3=C(C)[C@@H](OC(=O)[C@H](O)[C@@H](NC(=O)OC(C)(C)C)c4ccccc4)C[C@@](O)([C@@H](OC(=O)c4ccccc4)[C@H]21)C3(C)C [Docetaxel] (first compound 0.0001 µM, partner dose 0.0001 µM)",55.9
12,"N#CC[C@H](C1CCCC1)n1cc(-c2ncnc3[nH]ccc23)cn1 [ruxolitinib] + Cn1nnc2c(C(N)=O)ncn2c1=O [temozolomide] (first compound 1 µM, partner dose 2 µM)",119
13,"Cc1cc(Nc2cc(N3CCN(C)CC3)nc(Sc3ccc(NC(=O)C4CC4)cc3)n2)n[nH]1 [Tozasertib] + Nc1nc(F)nc2c1ncn2[C@@H]1O[C@H](CO)[C@@H](O)[C@@H]1O [fludarabine] (first compound 0.006 µM, partner dose 0.2 µM)",86
14,"N#CC[C@H](C1CCCC1)n1cc(-c2ncnc3[nH]ccc23)cn1 [ruxolitinib] + NC(=O)c1ccc(N(C(N)=O)c2c(F)cccc2F)nc1-c1ccc(F)cc1F [VX702] (first compound 1 µM, partner dose 0.4 µM)",121
